Reference: PubChem BioAssay AID1508623 (National Center for Advancing Translational Sciences (NCATS), 2021)
Screen size: about 48,000 compounds; about 450 (0.94%) were called active. About 19% were inconclusive and are not listed. The call rests on the fitted dose curve; in most records, active means well fitted inhibition curve with a large enough effect; inconclusive means small, poorly fitted or top-dose-only effect; inactive means no such curve, though single readings can be large or run the other way. This is one part of the list.

Test: Primary qHTS for Identification of Small Molecule Inhibitors of Huntingtin Promoter Activity; further: nearly all actives have a fitted effect of over 50% in size
Details: HEK293 HTT promoter firefly luciferase reporter (activity 0% = vehicle and -100% = no light), 24 h; series mostly up to 57.5 µM; activity change, negative = inhibition: at the top concentration
Method in brief: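 HEK293 Fluc reporter, 2,500 cells/well, 24 h pre-culture; cpds up to 57.5 uM final, 24 h 37 degrees C; Dual-Glo, 10 min RT; normalized vehicle = 0%, zero RLU = -100%.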

Activity change, negative = inhibition, inactive:
O=C1Nc2c(c(=O)[nH]c(=O)n2-c2ccc(Cl)cc2)C1(NS(=O)(=O)c1ccccc1)C(F)(F)F (stereo not drawn) -2.33%
Cc1ccc(C)c(NC(=O)CCn2cnnn2)c1 -4.93%
O=C(Nc1ccc(F)cc1F)c1ccc(-c2ccccc2)s1 17.1%
Cc1ccc2nc(CSc3nnc(NC(=O)COc4ccccc4F)s3)cc(=O)n2c1 3.95%
COc1ccc(C)cc1N(CC(=O)N1CCC(C)CC1)S(=O)(=O)c1ccc(C)cc1 -22.6%
Nc1c(C(=O)c2ccc3c(c2)OCO3)sc(Nc2ccccc2F)c1S(=O)(=O)c1ccccc1 -26%
CCOC(=O)CSc1nc2sc3c(c2c(=O)n1CC)CCCC3 -12.6%
COc1ccc(C2CC(=O)c3cc(-c4nc(-c5cccc([N+](=O)[O-])c5)cs4)c(=O)n(-c4cc(C)cc(C)c4)c3C2)cc1 (stereo not drawn) 0.479%
O=C(CCCn1c(=O)c2sccc2n(Cc2c(F)cccc2Cl)c1=O)NCc1ccccc1 -2.09%
CCCC(=O)Nc1ccc2nn(-c3ccc(CC)cc3)nc2c1 38.4%
Cc1cnc2c(c1SCC(=O)N(C)c1ccccc1)c(=O)n(C)c(=O)n2C -6.57%
Cn1c(=O)c2c(-c3ccccc3Br)n(C(C)(C)C)cc2n(C)c1=O -24.4%
Cc1ccc(N2CCN(Cc3nnc(-c4ccc5c(c4)OCO5)o3)CC2)c(C)c1 -5.3%
Cc1cc(C)cc(NC(=O)CSCc2cc(=O)c3cc(Cl)ccc3[nH]2)c1 0.986%
CC1(C)CC(=O)c2cc(-c3nc(-c4ccc(Br)cc4)cs3)c(=O)n(-c3ccccc3)c2C1 -7.63%
Cc1c(-c2nc(-c3ccc4c(c3)[nH]c(=O)n4C)no2)cccc1[N+](=O)[O-] -13.2%
O=C1c2ccccc2-c2onc3c(Br)cc(NC4CCCCC4)c1c23 11.1%
CN1C(C(=O)Nc2ccccn2)=C(O)c2ccccc2S1(=O)=O
Cc1cccc(N2C(=O)CSC23C(=O)N(CC(=O)NCCc2ccccc2)c2ccccc23)c1 (stereo not drawn) -10.4%
COc1ccc(-c2cc(C(F)(F)F)n3nc(-c4ccc(Cl)cc4)cc3n2)cc1OC -4.87%
COCCNC(=O)CSc1nc2cc3c(cc2c(=O)n1CCCCCC(=O)NCCc1ccc(OC)c(OC)c1)OCO3 -11.8%
O=C(Cc1ccccc1)NC1CC(=O)N(c2ccc3c(c2)OCCO3)C1 (stereo not drawn) -5.88%
NCCS 14.1%
CCN(CC)c1ccc(NC(=O)C(NS(=O)(=O)c2cccs2)C(C)C)c(C)c1 (stereo not drawn) -18.4%
O=C(OCc1ccccc1F)c1ccc(-c2nnn(Cc3ccccc3)n2)cc1 0.521%
CCn1nc(-c2ccccc2)c(-c2ccccc2)c(C(=O)Nc2ccccc2C(N)=O)c1=O -0.258%
CN(C(=O)c1cnc(N2CCOCC2)c2ccccc12)c1ccccc1F 1.87%
CCCOc1ccc2c(c1)CC[C@@H]1[C@@H]2CC[C@]2(C)C(OC)CC[C@@H]12 (stereo partly drawn) 3.56%
COc1ccc(-n2nnnc2C2CCN(S(=O)(=O)c3cccc(Cl)c3C)CC2)cc1 -14%
Cc1ccccc1-c1nnc(CN2CCN(c3cccc(C)c3C)CC2)o1 -9.28%
Brc1ccc(-c2nnc3sc(CN4CCCCC4)cn23)cc1 -12.1%
Cc1ccc(NC(=O)CSc2nnc(C)n3c2cc2sccc23)c(C)c1 9.22%
CC(C)(C)NC(=O)c1cnn(-c2ccccc2)c1C1CCN(C(=O)OC(C)(C)C)CC1 -9.13%
Cc1ccc(CSc2ccc(-c3cccs3)nn2)cc1 66.7%
O=C(Cn1ncc2c3ccccc3n(Cc3ccccc3F)c2c1=O)NC1CCCCCC1 -9.71%
O=C(NCc1ccccc1Cl)c1cc2c(s1)-c1ccccc1SC2 -2.76%
COc1cc(C(=O)NCC(c2cccnc2)N2CCc3ccccc3C2)cc(OC)c1OC (stereo not drawn) -13.6%
CCC(=O)Nc1ccccc1-c1nc2ccccc2n(CC(=O)c2ccc(C)c(C)c2)c1=O -3.46%
Cc1ccc(CN(C(=O)COc2ccc(Cl)c(C)c2)c2ccccn2)o1 -20.5%
O=C(CN1C(=O)COc2ccc(S(=O)(=O)N3CCOCC3)cc21)N1CCN(c2cccc(C(F)(F)F)c2)CC1 -6.79%
C[C@]12CCC(=O)C=C1C=C[C@@H]1[C@@H]2CC[C@@]2(C)[C@H]1CC[C@@]21CCC(=O)O1 -24.8%
Cc1oc2ncn(C)c(=O)c2c1C(=O)Nc1ccccn1 -7.7%
COc1cc(C2c3c(-c4c(C)cc(C)cc4O)n[nH]c3C(=O)N2CCO)cc(OC)c1OC (stereo not drawn) -24.6%
Cc1nc2nc(SCc3c(F)cccc3Cl)nn2c(C)c1Cc1ccccc1 25.8%
Cc1ccc(-c2cc(-c3ccc4c(c3)NC(=O)CO4)nc3c2COc2ccc(C)cc2-3)cc1 -11.8%
COc1ccc(OC)c(CNC(=O)c2cc3cc4ccc(OC)cc4nc3o2)c1 3.12%
Cc1cc(NC(=O)c2ccccc2Cl)ccc1NC(=O)c1ccccc1 10.4%
COc1ccc(-c2noc(COc3cc(C)c(Br)c(C)c3)n2)cc1OC -2.29%
COC(=O)[C@@H](N)Cc1ccc(O)c(O)c1 -3.67%
Cc1ccc(C(=O)/C=C/c2cn(CC(O)CN3CCc4ccccc43)c3ccccc23)cc1 (stereo not drawn) -30.6%
CCOc1cc2sc(N3CCC(C(=O)Nc4ccccc4Cl)CC3)nc2cc1Br 90.6%
Cc1ccc(CN2CCC(CNC(=O)c3cc4ccc5cccnc5c4[nH]3)CC2)cc1 -23.7%
Cc1cc(S(=O)(=O)C(CNC(=O)COc2ccccc2)c2cccs2)ccc1F (stereo not drawn) -6.73%
Cc1ccc(-c2nn(CC(=O)NC3CCCC3)c3c2cnc2ccc(F)cc23)cc1C 16.7%
COc1ccc(NC(=O)CCN2CCN(CCO)CC2)c(OC)c1 -7.68%
O=C(Nc1ccc2nc(SCc3ccccc3)sc2c1)c1cccc(F)c1 -13.5%
COc1ccc(OCCSc2nc(C)c(Cc3ccccc3)c(=O)[nH]2)cc1 -10.7%
COc1ccc(Oc2nc3c(c(=O)n(C)c(=O)n3C)n2Cc2ccccc2Cl)cc1 -23% [at 11.5 µM]
COc1ccccc1Cn1cc(C(=O)c2ccc(Cl)cc2)c(=O)c2cc3c(cc21)OCCO3 -6.24%
CN1CCN(C(=O)c2ccc3c(c2)N(Cc2c(F)cccc2Cl)C(=O)c2ccccc2S3)CC1 -31.6%
Cc1ccccc1C(=O)Nc1nnc(SCc2cc(=O)n3ccccc3n2)s1 -3.09%
CCOc1ccc(C(=O)CSc2nnc3cc(C)c4ccccc4n23)cc1 -8.23%
CCOc1cc(C(=O)Nc2nnc3n2CCS3)cc(OCC)c1OCC -4.15%
COc1ccccc1CNC(=O)COc1cc(=O)n(C)c2ccccc12 17.4%
Cc1ccc(N(CC(=O)NCC(C)c2ccccc2)S(=O)(=O)N(C)C)cc1 (stereo not drawn) 0%
COc1cc(Cl)c(C)cc1Nc1nc2ccccc2nc1NS(=O)(=O)c1ccccc1 58.8%
Cc1ccc(N2CCN(C(=O)NCc3noc4ccccc34)CC2C)cc1 (stereo not drawn) -28.1%
COc1ccc(S(=O)(=O)n2nc(C)c(S(=O)(=O)N3CCCCCC3)c2C)cc1OC -12.6%
CCCOc1ccc(C(=O)N(Cc2cccs2)c2ccc(C)cc2)cc1 -13.7%
COc1ccc(Cl)cc1S(=O)(=O)N1CCN(Cc2cccc(F)c2)CC1 -30.3%
CCOC(=O)c1c(C)oc2ncnc(NCCCN3CCN(c4cc(C)ccc4C)CC3)c12 -19.6%
COc1ccc(-c2c3c(nc4sc(C(=O)Nc5ccc(F)cc5)c(N)c24)CC(C)(C)CC3=O)cc1 -2.72%
CC(=O)c1cccc(NC(=O)CSc2nnc3ccc(-c4ccc(C)cc4)nn23)c1 -16.8%
Cc1cc2nc(-c3ccc(Cl)cc3)cc(C(F)(F)F)n2n1 -14%
Nc1ccncc1N -1.93%
Cc1ccccc1-c1nc(C(N)=O)c2c(n1)n(-c1ccc3c(c1)OCO3)c(=O)n2C -19.7%
CN(C)S(=O)(=O)c1ccc2c(c1)N(CC(=O)NCc1cccc(Br)c1)C(=O)CS2 -21.8%
O=C(NCc1ccco1)C1CCN(C(=O)N2CCOc3ccc(Cl)cc32)CC1 -1.78%
Cc1ccc(-c2nnc(NC(=O)c3ccc4c(c3)OCCO4)o2)c(C)c1 -11%
O=C1CC(c2nnc(Cc3ccc(Cl)cc3)o2)CN1c1ccccc1 (stereo not drawn) -14.3%
CCn1c(=N)c(C(=O)NC2CCCCC2)cc2c(=O)n3cccc(C)c3nc21 -8.33%
O=c1cc2nc(-c3cccs3)nc(SCCOc3ccc(Cl)cc3)n2[nH]1 -22.5%
COc1ccccc1-c1nnc2n(CCc3ccccc3)c(=O)c3ccccc3n12 4.54%
Cc1ccc(C)c(Cn2c(=O)n(Cc3ccc(C(=O)NC4CCN(Cc5ccccc5)CC4)cc3)c(=O)c3ccccc32)c1 -10.2%
COc1cccc(-n2cc(C(=O)Oc3cccc(C(F)(F)F)c3)c3ccccc3c2=O)c1 -11.2%
CC(=O)N1c2ccccc2CC1C(=O)N1CCN(c2cccc(Cl)c2)CC1 (stereo not drawn) -14.7%
O=C(CC1C(=O)N(c2ccc(F)cc2)C(=O)N1Cc1ccc2c(c1)OCO2)Nc1ccc(F)cc1 (stereo not drawn) -22.5%
COc1cccc(CNC(=O)CN2C(=O)CCCc3ccccc32)c1OC 0%
CCOC(=O)c1cnc2c(C)cccc2c1NCCc1ccc(OC)c(OC)c1 -28.6%
Nc1c(-c2nc(-c3cccs3)no2)nnn1-c1cccc(F)c1 98.5%
Cc1ccc(C)c(CN2C(=O)c3ccccc3S(=O)(=O)c3ccc(C(=O)N4CCCC4)cc32)c1 -27.8%
CCOC(=O)CSc1nc2c(sc3ccccc32)c(=O)n1Cc1ccc(C)cc1 -7.9%
CC(=O)NCCNc1nc2c(-c3ccc(C)cc3)nnn2c2ccccc12 2.62%
CCc1sc(Nc2ccc(C)cc2Br)nc1-c1cc2cccc(OC)c2oc1=O -25.8%
CCCN(CCC)C(=O)Cn1c(=O)n(-c2ccc(C)cc2)c(=O)c2ccc(C(=O)NCc3ccccc3Cl)cc21 -19.4%
CNC(=O)C1CCN(Cc2cc3ccccc3n2Cc2ccccc2C)CC1 -26.4%
Cc1ccc(-c2cn3c(n2)sc2cc(C(=O)NCc4cccs4)ccc23)cc1 3.55%
CCCCNC(=O)Cn1c(=O)cc(C)c2c(C)nn(-c3ccc(CC)cc3)c21 -17.3%
